Measured values taken from PubChem BioAssay AID1671193 (National Center for Advancing Translational Sciences (NCATS), 2021).
In all, about 150,000 compounds went through this assay and about 180 (0.12%) were called active. The inconclusive results got no clear call from the source; some entries with a clear call stand among them for comparison. Calls follow the shape of the dose curve; as a rule, active = well fitted cell-killing curve with a large enough effect; inconclusive = small, poorly fitted or top-dose-only effect, or effect the other way; inactive = flat fitted curve, though single readings scatter. Where the call is inconclusive, the potency comes from a doubtful curve fit.

Assay: GF-AFC viability counterscreen for inhibitors of alpha-synuclein gene (SNCA) expression; also: nearly all actives have a fitted effect of over 30% in size;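 as to activity change, negative = cytotoxicity: 0% = DMSO-treated cells and -100% = medium-only wells without cells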
Settings: HEK-293-SNCA-luc viability, GF-AFC fluorescence, 24 h; activity change, negative = cytotoxicity: at 57.1 µM (top of the series) unless noted
Procedure, shortened: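 HEK-293-SNCA-luc cells (1500/well) plated 24 h, then exposed 24 h to a dilution series; GF-AFC added 30 min at 37C, fluorescence 405/540 nm; normalised to medium-only and DMSO wells, Hill fit.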
Potency is read from the fitted curve at half-maximal effect; tags tell the direction and shape of the fitted curve.

Compound	activity change, negative = cytotoxicity	Potency
Cc1cc(S(=O)(=O)N2CCC(n3cnnc3-c3ccccc3)CC2)ccc1F	inactive: 3.45%	
Nc1ncnc2c1c(-c1cccc(OCc3ccccc3)c1)cn2C1CC(CN2CCC2)C1 (stereo not drawn)		inconclusive: 13.4 µM [cytotoxic, partial curve, poor fit]
CNc1cc(OC)c(C(=O)N[C@@H]2CCN(Cc3ccccc3)[C@@H]2C)cc1Cl		inconclusive: 2.12 µM [rising, partial curve, poor fit]
O=C(N[C@@H](Cn1cc(Cl)c(=O)[nH]c1=O)C(=O)O)C1CC1	inactive: 3.18% [at 87.6 µM]	
CC1(C)C=CN2C(=O)C3=CCCN3C(=O)[C@@H]2C[C@@]12Nc1ccccc1C2=O		inconclusive: 18.5 µM [rising, single point]
O=C(c1ccc2c(c1)N(Cc1cccc(Cl)c1)C(=O)c1ccccc1S2(=O)=O)N1CCCCC1		inconclusive: 0.199 µM [cytotoxic, single point]
COc1ccc(C2(C(=O)N3CCN(c4ccccn4)CC3)CCOCC2)cc1	inactive: -1.57%	
O=C(c1cccc(F)c1)N1CCC(n2cc(-c3nc(-c4ccccc4)no3)nn2)C1 (stereo not drawn)		inconclusive: 11.2 µM [cytotoxic, partial curve, poor fit]
Cc1ccc(-c2csc(-c3cc4c([nH]c3=O)CC(c3ccccc3)CC4=O)n2)cc1 (stereo not drawn)		inconclusive: 3.55 µM [cytotoxic, single point]
Cc1cc(NC(=O)N2CCCC(Cn3cnc4cccnc43)C2)ccc1Br (stereo not drawn)	inactive: -0.148%	
O=C(CCc1ccccc1)N1CCCC(n2cc(-c3nc(-c4ccccc4)no3)nn2)C1 (stereo not drawn)	inactive: -1.08%	
NS(=O)(=O)c1ccc(Nc2nc(OCC3CCCCC3)c3[nH]cnc3n2)cc1		inconclusive: 38.3 µM [cytotoxic, single point]
Cc1ccsc1-c1[nH]nc2ncc(-c3ccc(CO)cc3)nc12	inactive: -23.6% [at 87.6 µM]	
CC1Oc2ccc(NC(=O)c3ccc(F)cc3)cc2CN(Cc2ccccc2Cl)C1=O (stereo not drawn)	inactive: 15.4%	
CCc1ccc(NC(=O)c2ccc3c(c2)N(C)C2CCCCN2C3=O)cc1 (stereo not drawn)	inactive: 5.13% [at 12.5 µM]	
COc1ccc(-c2nc3cnc(N4CCNCC4)nc3n(-c3ccccc3)c2=O)cc1		inconclusive: 20 µM [rising, partial curve]
Cc1cc(C)nc(-n2nc(C)c3c2N(Cc2ccccc2)C(=O)CC3c2ccc(Cl)cc2)n1 (stereo not drawn)		inconclusive: 35.5 µM [cytotoxic, partial curve, poor fit]
COc1cccc(Cn2c(=O)c(-c3ccccc3)nc3cnc(N(C)C)nc32)c1		inconclusive: 3.16 µM [rising, partial curve, poor fit]
